Here are results for 33 variants from the GPR68 mutational scans of Howard et al. (2025).

B1: GPR68, Q15743 (parent)
chain: MGNITADNSSMSCTIDHTIHQTLAPVVYVTVLVVGFPANCLSLYFGYLQIKARNELGVYLCNLTVADLFYICSLPFWLQYVLQHDNWSHGDLSCQVCGILLYENIYISVGFLCCISVDRYLAVAHPFRFHQFRTLKAAVGVSVVIWAKELLTSIYFLMHEEVIEDENQHRVCFEHYPIQAWQRAINYYRFLVGFLFPICLLLASYQGILRAVRRSHGTQKSRKDQIQRLVLSTVVIFLACFLPYHVLLLVRSVWEASCDFAKGVFNAYHFSLLLTSFNCVADPVLYCFVSETTHRDLARLRGACLAFLTCSRTGRAREAYPLGAPEASGKSGAQGEEPELLTKLHPAFQTPNSPGSGGFPTGRLA

Scores with a large standard error are left out. Not listed are two conditions whose scores span a narrow range. Names with del lack the residues named; names with ins carry added residues between the positions named. For some of these results: The concentration of ogerin is not given here.

Data set [1] covers variants of B1. Kind of data set: cAMP reporter score (Enrich2 score, wild type = 0); higher = more signal; HEK293T, FACS bins.
The variants in data set [2] derive from B1. As to the kind of experiment: surface expression score (Enrich2 score, wild type = 0); higher = more signal; HEK293T, FACS bins.

As for N62Q, the cAMP reporter score was -0.04 in data set [1] (pH 5.5); -1.32 in data set [1] (pH 6); -0.416 in data set [1] (pH 6, modulator: ogerin); -1.09 in data set [1] (pH 6.5, modulator: ogerin). Moreover, in data set [2], the surface expression score was 0.052.
For the variant N62V, the cAMP reporter score in data set [1] (pH 5.5) is -2.53; in data set [1] (pH 6, modulator: ogerin), -1.31; in data set [1] (pH 6.5, modulator: ogerin), -1.26. For the same variant, in data set [2], the surface expression score was -0.872.
Regarding N62G, the cAMP reporter score was 1.96 in data set [1] (pH 5.5); 1.74 in data set [1] (pH 6); 1.08 in data set [1] (pH 6, modulator: ogerin); 1.38 in data set [1] (pH 6.5, modulator: ogerin).
Consider V65_A66insGSG, for which the cAMP reporter score in data set [1] (pH 5.5) is -1.89; in data set [1] (pH 6), -2.01; in data set [1] (pH 6.5, modulator: ogerin), -2.48.
On to G57A, for which the cAMP reporter score is -0.205 in data set [1] (pH 5.5); 0.023 in data set [1] (pH 6); 1.23 in data set [1] (pH 6, modulator: ogerin); -0.271 in data set [1] (pH 6.5, modulator: ogerin). The surface expression score in data set [2] is -0.3.
The matching figures for G57Q: -1.83, -1.42, -1.61, -0.791 and -1.96.
Taken in the same sequence, the figures for G57P were -2.58, -1.18, -1.5, -1.4 and -1.33.
Take G57M: the cAMP reporter score in data set [1] (pH 5.5) is -1.37; in data set [1] (pH 6) it was -1.18; in data set [1] (pH 6, modulator: ogerin) it was -0.839; in data set [1] (pH 6.5, modulator: ogerin) it was -1.69.
For the variant G57R, the cAMP reporter score is -1.34 in data set [1] (pH 5.5); -0.547 in data set [1] (pH 6); -1.49 in data set [1] (pH 6, modulator: ogerin); -0.863 in data set [1] (pH 6.5, modulator: ogerin). Also, the surface expression score in data set [2] was -2.19.
Taken in the same sequence, the figures for G57E were -1.27, -0.285, -1.31, -1.02 and -1.23.
Taken in the same sequence, the figures for G57K were -0.598, -1.06, -1.18, -1.21 and -2.68.
For G57T, the cAMP reporter score was -0.526 in data set [1] (pH 5.5) and -0.91 in data set [1] (pH 6, modulator: ogerin). In addition, the surface expression score in data set [2] is -1.61.
Take G57C: the cAMP reporter score in data set [1] (pH 5.5) is -1.37; in data set [1] (pH 6), -1.03; in data set [1] (pH 6, modulator: ogerin) it was -1.29; in data set [1] (pH 6.5, modulator: ogerin) it was -0.817. In addition, the surface expression score in data set [2] was -1.08.
Regarding G57Y, the cAMP reporter score is -1.27 in data set [1] (pH 5.5); -1.21 in data set [1] (pH 6, modulator: ogerin); -1.05 in data set [1] (pH 6.5, modulator: ogerin). Besides, in data set [2], the surface expression score was -2.37.
G57S: the cAMP reporter score in data set [1] (pH 5.5) was -0.178; in data set [1] (pH 6) it was -0.229; in data set [1] (pH 6, modulator: ogerin) it was -0.544; in data set [1] (pH 6.5, modulator: ogerin), -0.24. Besides, the surface expression score in data set [2] was -2.11.
Taken in the same sequence, the figures for G57N were -1.68, -0.125, -0.792, 0.477 and -1.79.
For G57W, the cAMP reporter score is 0.012 in data set [1] (pH 5.5); -0.86 in data set [1] (pH 6); -1.53 in data set [1] (pH 6.5, modulator: ogerin). For the same variant, the surface expression score in data set [2] was -2.22.
For G57L, the cAMP reporter score in data set [1] (pH 5.5) was -0.711; in data set [1] (pH 6), -1.86; in data set [1] (pH 6, modulator: ogerin) it was -1.64; in data set [1] (pH 6.5, modulator: ogerin), -1. The surface expression score in data set [2] is -2.99.
Taken in the same sequence, the figures for G57H were -1.43, -1.61, -0.891, -1.01 and -2.46.
Taken in the same sequence, the figures for G57F were -1.84, -0.906, -1.68, -1.11 and -1.85.
Turning to G57I, the cAMP reporter score in data set [1] (pH 5.5) is -0.569; in data set [1] (pH 6), -0.825; in data set [1] (pH 6, modulator: ogerin), -2.62; in data set [1] (pH 6.5, modulator: ogerin), -0.083. Also, the surface expression score in data set [2] was -3.11.
Taken in the same sequence, the figures for G57V were -1.82, -1.69, -1.71, -1.68 and -2.54.
Take G57del: the cAMP reporter score was -2.72 in data set [1] (pH 5.5); -0.856 in data set [1] (pH 6); -1.48 in data set [1] (pH 6.5, modulator: ogerin).
The matching figures for G57_V58insGSG: -0.278, -1 and -1.29.
Consider T64del, for which the cAMP reporter score in data set [1] (pH 5.5) is -1.59; in data set [1] (pH 6) it was -1.86; in data set [1] (pH 6, modulator: ogerin) it was -1.4; in data set [1] (pH 6.5, modulator: ogerin), -0.858. Besides, the surface expression score in data set [2] is -1.95.
The matching figures for Y59_L60insGSG: -0.842, 0.684, -0.535, -0.45 and -1.32.
Taken in the same sequence, the figures for N62_T64del were -1.77, -0.844, -2.28, -1.52 and -2.63.
The matching figures for R53del: -2.15, -1.42, -1.3, -0.494 and -2.65.
As for V58_Y59insGS, the cAMP reporter score in data set [1] (pH 5.5) is -0.425; in data set [1] (pH 6, modulator: ogerin) it was -0.691; in data set [1] (pH 6.5, modulator: ogerin), -2.48.
With R53T, the cAMP reporter score in data set [1] (pH 5.5) is -0.526; in data set [1] (pH 6), -0.422; in data set [1] (pH 6, modulator: ogerin), -0.695; in data set [1] (pH 6.5, modulator: ogerin), -0.435.
Consider R53W, for which the cAMP reporter score in data set [1] (pH 5.5) is -0.658; in data set [1] (pH 6), -0.9; in data set [1] (pH 6, modulator: ogerin) it was -0.41; in data set [1] (pH 6.5, modulator: ogerin) it was -1.31. The surface expression score in data set [2] was -2.04.
In the case of R53F, the cAMP reporter score in data set [1] (pH 5.5) is -0.33; in data set [1] (pH 6), -0.472; in data set [1] (pH 6, modulator: ogerin), -1.11; in data set [1] (pH 6.5, modulator: ogerin) it was -0.4.
With R53Y, the cAMP reporter score was -0.736 in data set [1] (pH 5.5); 0.155 in data set [1] (pH 6); -0.988 in data set [1] (pH 6, modulator: ogerin); -0.814 in data set [1] (pH 6.5, modulator: ogerin). Moreover, the surface expression score in data set [2] is -0.584.
